Data from publication PMC4336329 (PLoS ONE, 2015).
The campaign covered roughly 310,000 compounds. About 2,200 (0.71%) showed an effect of 50% or more. The effect is printed as a negative number. Some of the results follow.

target: human ether-à-go-go-related gene (hERG) potassium channel (human, UniProt Q12809); test: primary screen, population patch clamp on CHO cells stably expressing hERG
Sequence (Q12809 whole entry, looked up): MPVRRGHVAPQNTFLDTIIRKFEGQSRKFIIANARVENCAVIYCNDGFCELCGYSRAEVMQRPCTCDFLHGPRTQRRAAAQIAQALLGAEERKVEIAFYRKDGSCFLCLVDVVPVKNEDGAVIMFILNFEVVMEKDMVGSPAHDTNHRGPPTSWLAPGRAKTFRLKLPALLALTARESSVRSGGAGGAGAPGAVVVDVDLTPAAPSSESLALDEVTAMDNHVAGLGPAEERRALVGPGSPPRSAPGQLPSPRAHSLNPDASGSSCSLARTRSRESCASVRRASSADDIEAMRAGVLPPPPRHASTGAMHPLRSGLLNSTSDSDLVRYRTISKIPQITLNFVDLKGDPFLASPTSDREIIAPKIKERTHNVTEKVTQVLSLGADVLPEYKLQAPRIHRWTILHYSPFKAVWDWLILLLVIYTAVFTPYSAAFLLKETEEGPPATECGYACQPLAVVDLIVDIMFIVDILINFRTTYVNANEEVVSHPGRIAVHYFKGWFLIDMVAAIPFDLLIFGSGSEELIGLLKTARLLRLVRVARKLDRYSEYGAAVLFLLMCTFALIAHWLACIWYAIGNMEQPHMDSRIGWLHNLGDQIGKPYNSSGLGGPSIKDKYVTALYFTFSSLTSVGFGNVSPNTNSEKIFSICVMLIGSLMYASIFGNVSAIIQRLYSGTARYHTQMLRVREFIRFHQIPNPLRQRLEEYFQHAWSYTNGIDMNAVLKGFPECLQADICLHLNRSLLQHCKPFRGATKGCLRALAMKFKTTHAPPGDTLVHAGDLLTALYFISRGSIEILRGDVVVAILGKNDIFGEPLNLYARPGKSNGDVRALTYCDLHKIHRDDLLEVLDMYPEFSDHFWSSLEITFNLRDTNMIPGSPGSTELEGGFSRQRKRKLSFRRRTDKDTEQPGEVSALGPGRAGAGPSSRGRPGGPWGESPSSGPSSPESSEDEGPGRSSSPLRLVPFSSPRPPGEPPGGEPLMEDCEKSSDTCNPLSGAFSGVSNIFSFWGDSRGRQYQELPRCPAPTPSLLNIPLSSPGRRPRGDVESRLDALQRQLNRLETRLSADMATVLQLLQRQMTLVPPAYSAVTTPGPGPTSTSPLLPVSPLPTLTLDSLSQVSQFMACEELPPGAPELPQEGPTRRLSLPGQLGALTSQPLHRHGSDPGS

Row | Structure (SMILES) | hERG current change (%, negative = inhibition) at 1uM
1 | Cc1ccccc1N1CCN(C2CCCN(C(=O)c3cc(C(C)C)[nH]n3)C2)CC1 (centres unmarked) | -41.4%
2 | COCCCNCCCOc1ccc(C(C)(C)c2ccccc2)cc1.O=C(O)C(=O)O | 4.73%
3 | C=C1CC2C(=O)N(Cc3ccccc3)C(C(=O)OCC)(C(=O)OCC)C1N2C(=O)OC(C)(C)C (centres unmarked) | 7.83%
4 | Cc1ccc(NC(=O)CN(c2ccccc2F)S(C)(=O)=O)cc1 | 7.29%
5 | CC1CCCCC1NCC(=O)Nc1ccccc1-c1ccccc1.O=C(O)C(=O)O (centres unmarked) | 12.3%
6 | COc1ccc(/C=C(/NC(=O)c2ccccc2OC)C(=O)Nc2ccc(C(=O)O)cc2)cc1 | 11.6%
7 | Cc1cc(C)c(N)c(C(=O)O)c1 | 14.5%
8 | O=C(NCCCN1CCOCC1)c1ccc2c(c1)N(Cc1cccc(Cl)c1)C(=O)c1ccccc1S2=O (centres unmarked) | -18.1%
9 | CC(=O)OCC1OC(n2ccc3ccccc32)C(OC(C)=O)C(OC(C)=O)C1OC(C)=O (centres unmarked) | 8.79%
10 | CCc1nc(SCC(=O)N2c3ccccc3CC2C)c2c(C)c(C)sc2n1 (centres unmarked) | 12.1%
11 | CCC(C)NC(=O)Nc1ccccc1F (centres unmarked) | -3.08%
12 | COc1cc(OC)c(NS(=O)(=O)c2cn(C)cn2)cc1Cl | 12.3%
13 | O=C(COC(=O)c1cc(Br)ccc1O)NC1CCCCCC1 | 1.56%
14 | CSc1ccc(S(=O)(=O)NC(C)c2ccccc2)cc1 (centres unmarked) | 14.3%
15 | NC(=O)c1c(NC(=O)c2cnccn2)sc2c1CCCC2 | 18.1%
16 | COc1ccc2c(c1)C(=NNc1ccc(C(=O)O)cc1)c1cc(OC)ccc1-2 | -2.5%
17 | O=C(c1ccc(S(=O)(=O)N2CCC(c3nc4ccccc4s3)CC2)cc1)N1CCOCC1 | 9.13%
18 | Cc1ccc(-c2[nH]ncc2/C=N/n2c(COc3ccccc3)nc3ccccc3c2=O)cc1 | 10.9%
19 | CCOC(=O)c1ccc2c(c1)n(CC)c(/C=C/N(C)c1ccccc1)[n+]2CC.[I-] | -66.2%

Row | Structure (SMILES) | hERG current change (%, negative = inhibition) at 1uM
20 | Cc1cccc2sc(N(CCCN3CCOCC3)C(=O)CS(=O)(=O)c3ccc(F)cc3)nc12.Cl | 12.6%
21 | Cc1c(C(=O)NN)nn(-c2ccc(F)cc2)c(=O)c1C#N | 12.3%
22 | Cn1cc[n+](C)c1P(=S)(c1ccccc1)c1ccccc1.[Cl-] | 10.4%
23 | CCCN1c2cccc3cccc(c23)S1(=O)=O | 5.01%
24 | COc1cc2c(cc1NC(=O)COC(=O)C1CC(=O)N(Cc3ccco3)C1)oc1ccccc12 (centres unmarked) | 11.4%
25 | CN1CCN(C(=O)C23CC4CC(CC(C4)C2)C3)CC1 | 9.93%
26 | CCc1cc(=O)[nH]c(SCCC(F)=C(F)F)n1 | 12.6%
27 | COc1ccccc1OCC(=O)NCCS(=O)(=O)N1CCN(c2ccccc2)CC1 | -16.3%
28 | CN=C1CC(C)(C)CC(=O)/C1=C(/O)CCCN1C(=O)c2ccccc2C1=O | 10.4%
29 | CC1(C)CC(CCC(=O)NC(=S)Nc2ccccc2Cl)C(=O)O1 (centres unmarked) | 12.9%
30 | CCN1CCN(CCCNC(=O)CS(=O)(=O)Cc2nc(-c3cccc(OC)c3)oc2C)CC1 | -15.1%
31 | Cc1occc1-c1nnc(SCC(=O)Nc2ccc(F)cc2)n1C | 18.2%
32 | Cc1noc(C)c1CSc1nc2ccccc2c(=O)n1-c1ccccc1 | 2.24%
33 | Cc1ccc2c(c1)N(CC(=O)NC1CCCCC1)C(=O)c1cccnc1O2 | 2.93%
34 | c1ccc2c(c1)nc(NCCN1CCOCC1)c1nncn12 | 14.2%
35 | Oc1c(CN2CCOCC2)cc(-c2ccccc2)cc1CN1CCOCC1 | 8.64%
36 | O=C(CN1C(=O)c2cccnc2Oc2ccc(Cl)cc21)Nc1ccccc1F | -4.3%
37 | O=C(CCC1CCCN(Cc2ccncc2)C1)NCc1ccc(F)c(F)c1 (centres unmarked) | 0.967%
38 | COc1ccc(CSCC(=O)NCCC(C)C)cc1 | 16.7%

Row | Structure (SMILES) | hERG current change (%, negative = inhibition) at 1uM
39 | COc1cc2c(c(OC)c1OC)-c1ccc(O)cc1[C@@H](NC(C)=O)CC2 | 12.5%
40 | CCN(C(=O)CN1CCOCC1)C1(C)C(=O)c2ccccc2C1=O.Cl | 9.74%
41 | CSCCC(NC(=O)c1ccccc1)C(=O)NCc1ccco1 (centres unmarked) | -5.76%
42 | O=C(COC(=O)CNS(=O)(=O)c1ccccc1)Nc1ccc(Cl)cn1 | 1.6%
43 | Cc1cc(C)nc(NNC2=CC(=O)CC(C)(C)C2)n1 | 11.3%
44 | COc1ccc(C(=O)N[C@H](C(=O)NCc2cccs2)C(C)C)cc1 | 12%
45 | COc1cc(/C=C(/C)[N+](=O)[O-])ccc1OCc1ccccc1Cl | 13.1%
46 | CN(C)/C=C(/C(=O)c1ccccc1Cl)S(=O)(=O)c1ccccc1 | 11.4%
47 | O=C(NCCc1ccccn1)c1nc(Cn2cc(Br)cn2)no1 | 8.89%
48 | O=C(COC(=O)/C=C/c1ccccc1)NCC1CCCO1 (centres unmarked) | 12.3%
49 | COc1ccc(CCNC(=O)c2ccc(CS(=O)(=O)c3ccc(C)cc3)o2)cc1OC | 9.14%
50 | c1ccc(N2CCN(c3ncccn3)CC2)cc1 | 4.18%
51 | CC1CC(C)CN(CCCNS(=O)(=O)c2cc(Br)cc3c2N(C(=O)C2CC2)CC3)C1 (centres unmarked) | 3.87%
52 | C[N+]1(CC(O)c2ccccc2)CCCCCC1.[I-] (centres unmarked) | 11.5%
53 | c1ccc(CN2CCCC3(CCCN(Cc4nc(COc5ccccc5)no4)C3)C2)cc1 (centres unmarked) | -2.33%
54 | CCCCOc1ccccc1C1NC(=O)NC(C)=C1C(=O)OCc1ccco1 (centres unmarked) | 12.5%
55 | CC(=O)Nc1ccc(S(=O)(=O)N2C(C)CCCC2C)cc1 (centres unmarked) | 9.71%
56 | N#C/C(=C\c1ccc(-c2cccc(Cl)c2)o1)C(=O)Nc1cccc2cccnc12 | 17.1%
